# Where “and” joins values, the source holds several entries; their conditions need not be identical. Equal values may be shown once. Out of some 48,000 compounds screened, about 1,200 (2.5%) were called active. Inconclusive results (about 2%) are left out.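 The calls were made as follows: active = activation of at least 60% and not above a set upper limit (about 1 call in 100 departs from these limits); inconclusive = activation of 40% to 60%, or above that upper limit; inactive = activation under 40%.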 Some of the results follow.
# Target: Probable G-protein coupled receptor 32 (Homo sapiens) (UniProt O75388)
# Assay: qHTS for Agonists of Human Resolvin D1 Receptor DRV1; also: 0% is about no effect
# Conditions: CHO-K1 GPR32 beta-arrestin PathHunter luminescence, 90 min; at 76.9 µM; active compounds read high; zero percent set by DMSO-only wells
# Method in brief: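 Step 1: seed CHO-K1 GPR32 beta-arrestin cells, 2,500/well, overnight at 37 °C. Step 2: add compounds, 90 min at 37 °C. Step 3: detection reagent, 1 h ambient, then luminescence.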
# UniProt O75388, sequence (O75388 whole entry, looked up): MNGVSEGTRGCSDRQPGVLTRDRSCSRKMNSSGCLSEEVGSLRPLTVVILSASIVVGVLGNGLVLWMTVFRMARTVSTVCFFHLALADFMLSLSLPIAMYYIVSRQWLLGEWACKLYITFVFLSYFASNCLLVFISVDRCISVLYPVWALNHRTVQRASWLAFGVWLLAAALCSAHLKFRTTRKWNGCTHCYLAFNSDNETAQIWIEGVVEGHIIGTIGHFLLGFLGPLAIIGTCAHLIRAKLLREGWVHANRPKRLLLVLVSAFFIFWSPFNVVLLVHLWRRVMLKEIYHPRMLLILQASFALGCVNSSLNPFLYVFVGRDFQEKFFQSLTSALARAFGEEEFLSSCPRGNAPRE
row,Structure (SMILES),activation
1,COc1ccc(-c2cn3nc(N4CCCC(C(=O)Nc5ccccc5OC)C4)sc3n2)cc1 (centres undefined),inactive: -2.27%
2,COc1ccc(Cl)cc1S(=O)(=O)Nc1cccc(-c2ccc(N3CCCC3)nn2)c1,inactive: 37.8%
3,COc1ccccc1NC(=O)CSc1nc(-c2ccc(C)cc2)nc2c1Cc1c(CO)cnc(C)c1O2,inactive: -0.108%
4,Cc1nn2c(=O)cc(COC(=O)c3ccc(NC(=O)c4cccc(Br)c4)cc3)nc2s1,inactive: 37.4%
5,Cc1ccc(Cl)cc1NC(=O)CN1C(=O)CSc2ccc(S(=O)(=O)N3CCCC3)cc21,inactive: -21.8%
6,Cc1cn([C@@H]2O[C@H](CO)[C@@H](O)[C@H]2F)c(=O)[nH]c1=O,inactive: -10.8%
7,COC(=O)c1ccccc1NC(=O)Cn1c(=O)n(CCC(=O)NCc2ccccc2OC)c(=O)c2ccccc21,inactive: -7.66%
8,Cc1cccc(NC(=O)CCN2CCN(c3ccccc3F)CC2)c1,inactive: -6.55%
9,CCOC(=O)c1c(S(=O)(=O)NCC(=O)N2CCN(c3cc(C)ccc3C)CC2)c(C)n(C)c1C,inactive: -1.65%
10,c1ccc2occc2c1,inactive: -15.3%
11,COc1ccccc1N1CCN(C(=O)C(CCSC)NS(=O)(=O)c2ccc3c(c2)oc(=O)n3C)CC1 (centres undefined),inactive: -10.6%
12,CC(C)Oc1ccc(CNC(=O)CCCN2C(=O)CCn3nc(-c4cccn4C)cc32)cc1,inactive: -6.04%
13,COc1ccc(CC(=O)Nc2sc3c(c2C(=O)Nc2cccc(Cl)c2)CCCCC3)cc1,inactive: 16.7%
14,CCC(=O)N1CCc2cc(S(=O)(=O)CCC(=O)Nc3ccc(OC(F)(F)F)cc3)ccc21,active: 65.4%
15,COc1ccc2nc3oc(C(=O)N4CCN(c5cc(C)ccc5C)CC4)cc3cc2c1,inactive: -5.17%
16,O=C1NCCN1CCN1CCC(c2cn(-c3ccc(F)cc3)c3ccc(Cl)cc23)CC1,inactive: 41.4%
17,Cc1nn(-c2ccccc2)c2c1N(CCCC(=O)NCc1ccc(N(C)C)cc1)C(=O)CS2,inactive: -12.7%
18,O=C(c1ccco1)n1nc(-c2ccccc2)nc1NCc1ccc(Cl)cc1,inactive: -1.12%
19,CCC(=O)N1c2ccccc2CC1C(=O)N1CCN(c2cccc(Cl)c2)CC1 (centres undefined),inactive: -13.8%
20,CCc1ccc(NCc2cc3ccc(OC)cc3n(CC(=O)Nc3ccc(F)cc3F)c2=O)cc1,inactive: -35.9%
21,COc1cccc(CNCCSc2nnnn2C)c1OCc1ccccc1Cl,inactive: 30.9%

row,Structure (SMILES),activation
1,Cc1nn2c(=O)cc(COC(=O)c3ccco3)nc2s1,inactive: -8.97%
2,O=C(Nc1ccc(F)cc1)N1CCN(c2ccccc2F)CC1,inactive: 19.1%
3,COc1cccc(CNS(=O)(=O)c2ccc3c(c2)CCN3C(=O)C2CCC2)c1,inactive: 34.5%
4,CCOC(=O)c1ccc(-n2c(CCC(=O)O)ccc2-c2ccc(Br)cc2)cc1,inactive: -10.9%
5,COc1ccc(Cn2c(SCC(=O)NCc3ccc(Cl)cc3)nc3ccsc3c2=O)cc1,inactive: -0.867%
6,COc1ccc(N2C(=O)CS(=O)(=O)C23C(=O)N(Cc2cccc(F)c2)c2ccccc23)cc1OC (centres undefined),inactive: -9.9%
7,Cc1ccc(C)c(S(=O)(=O)c2nnn3c2nc(Nc2ccc(C)c(C)c2)c2sccc23)c1,inactive: -4.42%
8,O=C(CC(c1cccs1)N1Cc2ccccc2C1=O)Nc1ccc(F)c(F)c1 (centres undefined),inactive: -4.85%
9,Cc1cc(=O)[nH]c2nnc(SCc3ccc(F)cc3)n12,inactive: 31.3%
10,Cc1cc(Cl)ccc1OCC(=O)Nc1c(Cl)ccc2nsnc12,inactive: 7.31%
11,CC(C)(C)CC(C)(C)c1ccc(O)c(-n2nc3ccccc3n2)c1,inactive: 35.7%
12,O=C(Nc1c(C(=O)N2CCN(c3ccccc3)CC2)oc2ccccc12)c1ccc(Br)o1,inactive: -31.3%
13,O=C(NCc1cccs1)c1ccc(Cn2c(SCc3ccccc3)nc3cccnc32)cc1,inactive: -2.77%
14,CCOC(=O)c1cccc(NC(=O)NCc2cccn2Cc2ccccc2)c1,inactive: -5.81%
15,Cc1ccc2occ(CC(=O)N(Cc3ccccc3Cl)C3CCS(=O)(=O)C3)c2c1 (centres undefined),inactive: -13.8%
16,CC1CCC(Nc2nc3c(-c4ccc(Cl)cc4)nnn3c3ccccc23)CC1 (centres undefined),inactive: 18.7%
17,Cc1ccc(Cn2cc(CCC(=O)NC3CCC(C)CC3)c3ccccc32)cc1 (centres undefined),inactive: -37.4%
18,CC(=O)c1ccc(NC(=O)CN2C(=O)CCc3ccccc32)cc1,inactive: -3.54%
19,CC(=O)/C=C/C=C1/C2CCC(C2)C1(C)C (centres undefined),inactive: -13.9%
20,O=C(CSc1oc(-c2ccccc2)nc1S(=O)(=O)c1ccc(Cl)cc1)Nc1ccc(F)cc1,inactive: -3.08%
21,CC(=O)Nc1ccc(/C=C/c2nc(-c3ccccc3O)n(-c3ccccc3)n2)cc1,inactive: 47.1%

row,Structure (SMILES),activation
1,COc1ccccc1CNS(=O)(=O)c1ccc2c(c1)NC(=O)C(C)C(=O)N2 (centres undefined),inactive: -16.8%
2,Cn1c(=O)oc2cc(S(=O)(=O)N3CCCC(C(=O)NCCc4ccc(Cl)cc4)C3)ccc21 (centres undefined),inactive: 10%
3,O=C(Cn1cc(SCc2ccc(C(F)(F)F)cc2)c2ccccc21)N1CCOCC1,inactive: -9.9%
4,Cc1cccc(-c2nc(C)c(CCNC(=O)C(=O)Nc3cccc(Cl)c3C)s2)c1,inactive: -24.6%
5,COC(=O)c1ccccc1NC(=O)Cn1c(CCC(=O)O)ccc1-c1cccs1,inactive: -11.2%
6,Cc1ccc(-c2nc(-c3cc4c([nH]c3=O)CC(C)(C)CC4=O)sc2C)cc1,inactive: 46.5%
7,CCCCSc1nc(-c2ccc(OC)cc2)ccc1C#N,inactive: -8.26%
8,O=C(NCc1ccccc1)c1cc2sccc2n1Cc1ccc(Cl)cc1,inactive: 38.5%
9,COC(=O)CSc1ncc2c(n1)-c1ccccc1N(Cc1ccccc1C)S2(=O)=O,inactive: -9.31%
10,CCOc1ccc(N(C)C(=O)CS(=O)(=O)c2cccc3nsnc23)cc1,inactive: -7.08%
11,O=C1CCC(N2C(=O)c3ccccc3C2=O)C(=O)N1 (centres undefined),inactive: -26.5% and inactive: -2.82%
12,CCC1CN(C(=O)N2CCC(C(=O)NCc3ccc(N(C)C)cc3)CC2)c2ccccc2O1 (centres undefined),inactive: -22.5%
13,CCCOc1cccc(C(=O)Nc2cccc(-c3nc4ncccc4o3)c2C)c1,inactive: 22.1%
14,CCOC(=O)c1ccc(N2CCN(c3cc(C)ccc3C)CC2)c(NC(=O)Nc2ccc(CC)cc2)c1,inactive: -3.56%
15,COc1cccc(Nc2ccc3cc(S(=O)(=O)N4CCC(C)CC4)ccc3n2)c1,inactive: -10.6%
16,CCCCC(=O)NCc1nc2cccnc2n1Cc1ccc(OC)cc1,inactive: -18.8%
17,CC(=O)c1cccc(NC(=O)C2CCN(C(=O)c3cnn(-c4ccccc4)c3-n3cccc3)CC2)c1,inactive: -10.5%
18,Cc1c(C(=O)NCc2ccccc2Cl)sc2nc3n(c(=O)c12)CCCCC3,inactive: 1.99%
19,Cc1cn2c(=O)cc(COC(=O)c3cccc(NC(=O)c4ccc(C(C)(C)C)cc4)c3)nc2s1,inactive: -8.34%
20,CCn1cc2nc(SCC(=O)Nc3ccc(OC)c(OC)c3)n(Cc3ccc(Cl)cc3)c(=O)c2n1,inactive: -2.75%
21,Cc1nn2c(=O)cc(COC(=O)c3cccc(NC(=O)CCc4ccccc4)c3)nc2s1,inactive: -14.4%

row,Structure (SMILES),activation
1,Cc1ccccc1-c1nc2scc(CCNS(=O)(=O)c3ccccc3)n2n1,active: 75.3%
2,COc1ccc(-c2cc(-c3ccc(F)cc3)nc3c2COc2ccc(F)cc2-3)cc1,inactive: -7.64%
3,CCOc1ccc(-n2c(/C=C/c3cccc(F)c3)nc3cc(OC)c(OC)cc3c2=O)cc1,inactive: 30.1%
4,COc1ccc(-c2oc3ncn4nc(-c5ccccc5O)nc4c3c2-c2ccc(OC)cc2)cc1,inactive: -12.3%
5,O=C1CN(C(=O)COc2ccc(Cl)cc2)C(c2ccccc2)c2cc(Br)ccc2N1 (centres undefined),inactive: -20.6%
6,O=C(NCc1ccccc1)C1CCCN(S(=O)(=O)c2cccc3nsnc23)C1 (centres undefined),inactive: -13.2%
7,CC(C)(C)OC(=O)N1CCC(c2c(C(=O)Nc3ccc4c(c3)OCCO4)cnn2-c2ccc(Cl)cc2)CC1,inactive: -15.6%
8,CCOc1ccc(NC(=O)CN2C(=O)CC(C)Sc3ccccc32)cc1 (centres undefined),inactive: 6.74%
9,COc1ccc(CCNC(=O)C(CC(C)C)N2Cc3ccccc3C2=O)c(OC)c1OC (centres undefined),inactive: -5.7%
10,CCn1cc(CCC(=O)NCc2ccc(C)cc2)c2ccccc21,inactive: -31.4%
11,Cc1ccc2c(c1)C(Cc1ccccc1F)C(=O)N2 (centres undefined),inactive: 39.9%
12,COc1ccc(C)cc1NC(=O)C1CCN(S(=O)(=O)c2ccc3[nH]c(=O)oc3c2)CC1,inactive: 4.65%
13,Cc1cccc(C(=O)Nc2cc(-c3nc4cccnc4s3)ccc2C)c1,inactive: -5.01%
14,COc1cc2c(=O)n(Cc3ccccc3Cl)c(=O)n(CC(=O)Nc3ccc(C)c(C)c3)c2cc1OC,inactive: 5.82%
15,CC(C)Oc1ccccc1C1C=C(C(=O)O)Nc2ncnn21 (centres undefined),inactive: -0.528%
16,COc1ccc(CCn2c3c(c(=O)[nH]c2=O)C(NC(=O)c2ccccc2F)(C(F)(F)F)C(=O)N3)cc1OC (centres undefined),inactive: 6.87%
17,COc1ccccc1-c1nc(SCC(=O)NCc2ccc(C)cc2)c2c(=O)n(C)c(=O)n(C)c2n1,inactive: 9.13%
18,Cc1ccc(-c2ccc(=O)n(CC(=O)Nc3ccc(C)cc3Cl)n2)cc1,inactive: -20.9%
19,O=C(COc1ccccc1F)Nc1ccc2oc(-c3cccc(Cl)c3)nc2c1,inactive: -5.35%
20,Cc1cccc(CN2C(=O)N(c3ccc(C(C)C)cc3)S(=O)(=O)c3ccccc32)c1,inactive: 18.9%
21,COc1cccc(/C=C/c2nc(C#N)c(NCCc3ccccc3)o2)c1,inactive: -12%

# Source: PubChem BioAssay AID1346428 (National Center for Advancing Translational Sciences (NCATS), 2018)
